# Results from the supplement of paper PMC11369174, “Proteome-scale characterisation of motif-based interactome rewiring by disease mutations” (Molecular Systems Biology, 2024).
# The other results are listed elsewhere or left out. Single values of this set are uncertain.
# T1: SPOP_MATH__O43791_19_176
# T1 chain: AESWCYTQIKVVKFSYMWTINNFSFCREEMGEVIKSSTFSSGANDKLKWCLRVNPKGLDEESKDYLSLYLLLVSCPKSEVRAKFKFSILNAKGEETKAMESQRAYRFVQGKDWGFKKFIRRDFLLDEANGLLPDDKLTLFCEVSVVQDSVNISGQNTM
# Tests used:
# Experiment in all cases: mutation enrichment score (mutant vs wild-type peptide binding to bait); baits are purified protein domains named by gene / domain / UniProt id / residues; peptides come from disordered regions of human proteins; higher = mutation enhances binding relative to wild type
# SNX9_SH3_1_Q9Y5X1_3_61 = conditions: wild-type window: …
# SPOP_MATH__O43791_19_176 = target: T1, SPOP_MATH__O43791_19_176; conditions: paper call: no_effect, wild-type window: …
# [1] = target: USP7_MATH-TRAF__Q93009_53_206; conditions: paper call: no_effect, wild-type window: …
# [2] = number of wild-type / mutant comparisons summed (bounds the score): 6, paper call: diminished
# [3] = number of wild-type / mutant comparisons summed (bounds the score): 6, paper call: no_effect
# [4] = number of wild-type / mutant comparisons summed (bounds the score): 12, paper call: no_effect
# [5] = number of wild-type / mutant comparisons summed (bounds the score): 6
# [6] = number of wild-type / mutant comparisons summed (bounds the score): 12
# SNX9_SH3_1_Q9Y5X1_3_61, sequence (chain, as listed by the source): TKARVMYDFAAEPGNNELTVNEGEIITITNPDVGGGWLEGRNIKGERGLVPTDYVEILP
# USP7_MATH-TRAF__Q93009_53_206, sequence (chain, as listed by the source): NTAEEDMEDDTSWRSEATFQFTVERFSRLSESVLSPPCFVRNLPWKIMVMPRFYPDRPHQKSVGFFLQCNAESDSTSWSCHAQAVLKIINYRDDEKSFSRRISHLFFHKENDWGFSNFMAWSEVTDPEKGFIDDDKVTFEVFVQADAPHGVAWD
binder,measurement,setting,value
LYKDPCAFQRGPAPEFSASPAACLYMGRQPPPPPPHPFPGA [P33A P33A],mutation enrichment score,SNX9_SH3_1_Q9Y5X1_3_61; [2],-6
LYKDPCAFQRGPAPEFSASPSACLYMGRQPPPPPPHPFPGA [P33S P33S],mutation enrichment score,SNX9_SH3_1_Q9Y5X1_3_61; [2],-6
QAESQINKQTKVGDIARKTDGPALHLRIPPQPGALGSPPPA [R2099G R2099G],mutation enrichment score,SNX9_SH3_1_Q9Y5X1_3_61; [3],-1.3
QPILDSFPKDVDLSQPRKGRNPPAVPKALVPPPRLPTKRKA [K114N K114N],mutation enrichment score,SNX9_SH3_1_Q9Y5X1_3_61; [3],4.5
LYKDPCAFQRGPAPEFSASPTACLYMGRQPPPPPPHPFPGA [P33T P33T],mutation enrichment score,SNX9_SH3_1_Q9Y5X1_3_61; [3],-3.9
AYGAPLTSPEPSQPPCAVCIWHRDAPRASSPPRYLQHDPFP [G1019W G1019W],mutation enrichment score,SNX9_SH3_1_Q9Y5X1_3_61; [3],3
LGSQRDLTHSDSESSLHMSDCQRVAPKPPQMSRAADEALNA [R530C R530C],mutation enrichment score,SNX9_SH3_1_Q9Y5X1_3_61; [4],-0.14
LGSQRDLTHSDSESSLHMSDGQRVAPKPPQMSRAADEALNA [R530G R530G],mutation enrichment score,SNX9_SH3_1_Q9Y5X1_3_61; [4],3
DLPMGTEGALSPGVSTSGISISQGEQSNPAQSPFSPHTSPH [S668I S668I],mutation enrichment score,SPOP_MATH__O43791_19_176; [5],-1.7
same,mutation enrichment score,[1]; number of wild-type / mutant comparisons summed (bounds the score): 10,1
ATTLHVPSQDPAGIQHLQPARRLSASPTVSSSSLVLYQSSD [H582R H582R],mutation enrichment score,SPOP_MATH__O43791_19_176; [5],-3
TTLHVPSQDPAGIQHLQPAHGLSASPTVSSSSLVLYQSSDS [R583G R583G],mutation enrichment score,SPOP_MATH__O43791_19_176; [5],-0.19
same,mutation enrichment score,[1]; number of wild-type / mutant comparisons summed (bounds the score): 5,1
GIQHLQPAHRLSASPTVSSSILVLYQSSDSSNGQSHLLPSN [S594I S594I],mutation enrichment score,SPOP_MATH__O43791_19_176; [5],-4
GCYIHIYLTVRNPNIVSSSSNTRIAKRMAMLIFTDFLCMAP [D567N D567N],mutation enrichment score,SPOP_MATH__O43791_19_176; [5],-2.8
LSPQGYASPVSQSPQTSSKQNSWNSLVLADSHGDIITA [D425N D425N],mutation enrichment score,SPOP_MATH__O43791_19_176; [5],1
VDETGNNPSVSLKLEESKATTSSNPSSPAPDWYKDFVTDAD [S1990T S1990T],mutation enrichment score,SPOP_MATH__O43791_19_176; [5],-2
SLYQSSCQGQLHRSVSWADSTVVMEEGSPGEVPVLVEPPGL [A1297T A1297T],mutation enrichment score,SPOP_MATH__O43791_19_176; [5],5
GYISVVDTLKVVTEEVTTTTITITEKHKLNVPETMTEVLDV [T825I T825I],mutation enrichment score,SPOP_MATH__O43791_19_176; [5],-3.9
AGTYKCIATNKTGQNSFSLEISVVAKEVKKAPVILEKLQNC [L1161I L1161I],mutation enrichment score,SPOP_MATH__O43791_19_176; [5],-2
AGLAQSLASQSASISGVKQLSPIQLPQSSSGNTIIPSNSGS [P317S P317S],mutation enrichment score,SPOP_MATH__O43791_19_176; [5],4
TTLHVPSQDPAGIQHLQPAHQLSASPTVSSSSLVLYQSSDS [R583Q R583Q],mutation enrichment score,SPOP_MATH__O43791_19_176; [6],-3
KDANSDFSSYADSLWWGTITSTTIGYGDKTPHTWLGRVLAA [L281S L281S],mutation enrichment score,SPOP_MATH__O43791_19_176; [6],4
VVSNNSSAHGSQRTSGPESSVKVTSSIPVFDLQDGGRKICP [M358V M358V],mutation enrichment score,SPOP_MATH__O43791_19_176; [6],5
IRKTEELLKKAKGNTEEDGVSSTSPMEVLDRLIQQGADAHS [P641S P641S],mutation enrichment score,SPOP_MATH__O43791_19_176; [6],5
